Measurements reported in PubChem BioAssay AID1362 (SRMLSC, 2008).
The list shows a part of the results. These are further read-outs of the screen, such as a control signal, another cell line or another target. No call is given for them. The list favours compounds with an active or inconclusive main result.

Test: growth inhibition of WT strain, primary screen, mitochondrial fusion inhibitor project, WT and mutant strains, chemical genetic (AID 1362); further: tested in S. cerevisiae
Conditions: mitochondrial fusion phenotypic screen, at 10 µM
`CCOC(=O)c1c(C)[nH]c(C)c1C(=O)CSc1nnc(-c2ccncc2)n1C` gave an inhibition of -4.19%. `CC1(C)CC(=O)C2=C(C1)N=c1s/c(=C/c3ccc(F)c(F)c3)c(=O)n1C2c1ccc(F)cc1` (centres undefined) showed an inhibition of 33.3%. In the case of `O=[N+]([O-])c1ccc2nc(-c3ccc(Cl)cc3)[nH]c2c1`, the inhibition is reported as 53.2%. In the case of `O=C(NCc1ccc2c(c1)OCO2)c1ccc(COc2cccc(Cl)c2)o1`, the inhibition is reported as 30.7%. With `Cc1ccc(SCc2cn3c(C)csc3n2)cc1` the inhibition was 58.5%. For `COC(=O)Cc1cn(-c2ncc(C(F)(F)F)cc2Cl)c2ccccc12`, the inhibition was 82.1%. With `C=CCn1c(SCC(=O)Nc2ccc3c(c2)CCC3)nnc1-c1cccs1` the inhibition was 9.53%. In the case of `CC1=NN(c2ccc(Cl)cc2)C(=O)/C1=C\c1cccn1-c1ccc(S(N)(=O)=O)cc1`, the inhibition is reported as 65.4%. Work on `O=C1CC(SCc2nc3ccccc3[nH]2)C(=O)N1c1cccc(F)c1` (centres undefined) yielded an inhibition of 13.3%. `O=C(Nc1ccccc1)Nc1ncc([N+](=O)[O-])s1` gave an inhibition of 58.7%. With `COc1c(OC(C)=O)ccc(/C=C/c2ccc3ccccc3n2)c1[N+](=O)[O-]` the inhibition was 42%. For `NC(=O)COC(=O)c1ccc(Cl)c(S(=O)(=O)N(Cc2ccccc2)c2ccc(Cl)cc2)c1`, the inhibition was 12.2%. `CSc1ccccc1NC(=S)N/N=C/c1cccn1Cc1cccc(C)c1` showed an inhibition of 18.7%. For `O=S(=O)(Nc1ccc(-c2csc(-c3ccccc3)n2)cc1)c1ccccc1`, the inhibition was 60.7%. Work on `CC(C)(C)c1ccc(OCCCNCc2ccccc2)cc1` yielded an inhibition of 86.1%. In the case of `Cc1ccccc1OCC(=O)Nc1ccccc1N1CCC(C)CC1`, the inhibition is reported as 0.87%. In the case of `COc1ccc(-n2cc(CNC3CCN(C)CC3)c(-c3cccc(F)c3)n2)cc1`, the inhibition is reported as 46.1%. Compound `COc1cc(-c2nc(-c3cccc(C)c3)no2)cc(OC)c1OC` has an inhibition of 47.3%. `Cc1ccc(CNc2oc(-c3ccco3)nc2S(=O)(=O)c2ccccc2)cc1` showed an inhibition of 48.1%. For `CN=c1scc(-c2ccccc2Br)n1/N=C/c1ccc[nH]1`, the inhibition was 52.1%. For `CC(=O)Cc1nsc(NC(=O)c2ccc(-c3ccc(Cl)c(Cl)c3)o2)n1`, the inhibition was -29.1%. In the case of `Nc1cc(N)nc(SCC(=O)N2CCc3ccccc32)n1`, the inhibition is reported as 1.85%. Work on `CN1/C(=C\C(=O)Nc2ccc(F)cc2)C(C)(C)c2ccccc21` yielded an inhibition of 26%. `CCc1cccc(CC)c1NC(=S)NCCc1c(C)[nH]c2ccccc12` gave an inhibition of -23.9%. With `COc1ccccc1/C=C/CN1CCCC(CO)(Cc2cccc(Cl)c2)C1` (centres undefined) the inhibition was 61.9%. For `Cc1ccc(-n2c(-c3ccccc3)cc(/C=N/NC(=O)CC#N)c2-c2ccccc2)cc1`, the inhibition was 0.35%. Work on `COC1(C)CC2C(CC1OC(=O)c1cc([N+](=O)[O-])cc([N+](=O)[O-])c1)C2(C)C` (centres undefined) yielded an inhibition of 69.1%. Compound `Cc1ccccc1OCc1n[nH]c(=S)n1Cc1ccccc1` has an inhibition of 33.7%. For `Clc1ccc(SCCOCCN2CCc3ccccc3C2)cc1`, the inhibition was 60.5%. With `Cc1ccc(-c2nc(NCc3ccco3)c3ccccc3n2)cc1` the inhibition was 53.2%. In the case of `NC(=S)N/N=C/c1ccc(-c2cc(Cl)ccc2Cl)o1`, the inhibition is reported as 64.9%. In the case of `CC1CCN(C(=O)c2ccc3c(c2NCCO)C(=O)c2ccccc2C3=O)CC1`, the inhibition is reported as 41.1%. For `Cc1ccc(CN2CCN(/N=C/c3ccc(Cl)c([N+](=O)[O-])c3)CC2)cc1`, the inhibition was 53.6%. In the case of `Nc1nc(COc2ccc3ccccc3c2)cs1`, the inhibition is reported as 68.6%. `O=C(CNc1cccc2ccccc12)N/N=C/C(Br)=C/c1ccccc1` gave an inhibition of 65.9%. `CCOc1ccccc1NC(C)C(=O)Nc1cc(C(F)(F)F)ccc1N1CCOCC1` (centres undefined) showed an inhibition of 3.85%. `COc1ccc(NC(=S)Nc2cc(-c3ccccc3)[nH]n2)cc1Cl` gave an inhibition of 40.9%. Work on `O=C(O)c1ccccc1C(=O)c1ccc2c(c1)N(Cc1ccc(Cl)c(Cl)c1)C(=O)CO2` yielded an inhibition of 15.4%. In the case of `O=c1cc2c(nn1Cc1ccc(Cl)cc1Cl)-c1ccccc1CC2`, the inhibition is reported as 6.72%. For `CN(NS(=O)(=O)c1ccc(Br)cc1)c1nc(C(F)(F)F)nc2ccccc12`, the inhibition was 38.1%. `CCOc1ccccc1N1CCN(C(=S)NC(=O)C23CC4CC(CC(C4)C2)C3)CC1` gave an inhibition of 5.92%. In the case of `Cc1ccc(-n2c(C)cc(C3=NNC(=NC4CC4)SC3)c2C)cc1C`, the inhibition is reported as 58.2%. `Cc1cccc(-n2cc(CN3CCN(Cc4nccn4C)CC3)c(-c3cccc(F)c3)n2)c1` gave an inhibition of 73.4%. In the case of `CCC(=O)Nc1sc(Cc2ccccc2)c(C)c1C(N)=O`, the inhibition is reported as 69.7%. In the case of `Cc1nc(NC2=NCN(C3CCCCC3C)CN2)nc2ccccc12` (centres undefined), the inhibition is reported as 2.57%. `N#Cc1nc(Cc2cccc3ccccc23)oc1NCc1ccc(F)cc1` showed an inhibition of 31.8%. Work on `O=C(CNC(=S)N(Cc1ccccc1)Cc1ccccc1F)NCCc1ccccc1` yielded an inhibition of -7.82%. With `Cc1ccc(-c2cc(-c3ccccc3Cl)[nH]n2)c(O)c1` the inhibition was 67%. `NNC(=O)c1ccc(COc2cccc3ccccc23)cc1` showed an inhibition of 41.9%. With `Clc1ccccc1-c1ccc(CN2CCN(c3ccccc3)CC2)o1` the inhibition was 55.2%. `O=C(Nc1ccccn1)c1cc(-c2cccc(Cl)c2)nc2ccccc12` showed an inhibition of 45.8%. `COC(=O)[C@H](Cc1ccccc1)NC(=O)O[C@H]1C(=O)c2ccc(OC)cc2O[C@@H]1c1ccc2c(c1)OCO2` showed an inhibition of -12.6%. For `OCCN1CCN(c2ncnc3c2c(-c2ccccc2)cn3-c2ccc(Br)cc2)CC1`, the inhibition was 80.6%. With `CC(=O)Oc1ccc(-c2cccc(C(=O)Oc3ccccc3)c2)cc1` the inhibition was 39.8%. In the case of `O=C(c1cc(C2CC2)nc2ccc(Br)cc12)N1N=C(C(F)F)CC1(O)C(F)F` (centres undefined), the inhibition is reported as 31.1%. `O=C(CSc1nc2cc(Cl)ccc2o1)NCCc1ccccc1` gave an inhibition of -2.16%. With `CSc1cccc(NC(=S)N(Cc2ccc(C)cc2)Cc2cccnc2)c1` the inhibition was 25%. Compound `CCN(CC)c1ccc(/C=N/Nc2nc3ccccc3[nH]2)cc1` has an inhibition of 10.9%. `CC/C(=C(/CC)c1ccc(O)cc1)c1ccc(O)cc1` gave an inhibition of 23.8%. In the case of `c1ccc(NCc2nc3ccccc3n2CCOc2ccccc2)cc1`, the inhibition is reported as 45%. For `Cc1[nH]c2ccccc2c1N=Nc1ccccc1F`, the inhibition was 55.1%. In the case of `COc1ccc(-n2nc(C#N)c(Cl)cc2=O)cc1`, the inhibition is reported as 58.5%. With `Cc1cc(N/N=C/c2ccccc2O)nc(-c2ccccc2O)n1` the inhibition was 66.1%. Work on `CCCOP(=O)(OCCC)C(Nc1ccc(C(C)C)cc1)c1ccc([N+](=O)[O-])cc1` (centres undefined) yielded an inhibition of 9.01%. For `O=C(c1ccccc1)N1N=C(c2ccccc2)CC1c1ccccc1O` (centres undefined), the inhibition was 49%. Work on `CCCc1ccc(Oc2cn[nH]c2-c2ccc(O)c(C)c2O)cc1` yielded an inhibition of 81%. `CCc1c(C)sc2nc(C(C)C)nc(SCC(=O)N3CCc4ccccc4C3)c12` showed an inhibition of 18.5%. Compound `Cc1ccc(S(=O)(=O)Nc2ccccc2CNc2ccc(Br)cn2)cc1` has an inhibition of 22.7%. `COc1ccccc1/C=C\C=N\n1c(C2CCCCC2)n[nH]c1=S` gave an inhibition of 28.9%. Compound `COc1ccccc1CNC(=S)Nc1cc(C)ccc1C` has an inhibition of 33.4%. In the case of `Fc1ccc(N=C2NN=C(c3cc(F)ccc3F)CS2)cc1`, the inhibition is reported as 63.5%. In the case of `CCCCCCCCC/C(=N\O)c1ccccn1`, the inhibition is reported as 69.4%. `CCOC(=O)C1=C(CC)Nc2ccccc2N/C1=N\S(=O)(=O)c1ccc2ccccc2c1` showed an inhibition of 9.71%. Work on `CCc1cccc(CC)c1NC(=S)NCCc1c(C)[nH]c2ccc(C)cc12` yielded an inhibition of -5.9%. In the case of `CSc1nc2cc(Oc3cccc(Cl)c3Cl)c(Cl)cc2[nH]1`, the inhibition is reported as 80.3%. Work on `COc1ccc(Nc2nc(-c3ccccc3)c3ccccc3n2)cc1` yielded an inhibition of 8.25%. Work on `Cc1ccc(NC(=O)c2ccc(Nc3c([N+](=O)[O-])cc([N+](=O)[O-])cc3[N+](=O)[O-])cc2)cc1` yielded an inhibition of 12%. For `Cc1cc(NC(=S)N(Cc2ccc(Cl)cc2)Cc2ccc(C(=O)O)cc2)ccc1Cl`, the inhibition was -12%. For `Cc1cccc(C)c1NC(=S)N(Cc1ccccc1)Cc1cccs1`, the inhibition was 53.5%. With `COc1cc(-c2nc3ccc4ccccc4c3c3c2CCC3)ccc1O` the inhibition was 55.8%. With `CCN(CC)P(=O)(Nc1ccc(C)cc1Br)c1ccc(N(C)C)cc1NC(=O)c1ccco1` (centres undefined) the inhibition was -10.5%. Compound `C/C(=N\NC(=S)NCc1ccccc1)c1ccccc1` has an inhibition of 60.9%. With `Cc1cc(Nc2ccccc2)c2c([N+](=O)[O-])ccc(C)c2n1` the inhibition was 62.3%. Work on `Cc1ccc(Cn2nc3c(cc2=O)CCc2ccccc2-3)cc1` yielded an inhibition of 17.3%. Work on `COc1ccccc1-n1cnc2sc(-c3ccccc3)cc2c1=O` yielded an inhibition of 7.64%. Work on `Cc1cccc(C(=O)O/N=C/c2ccc(Br)cc2)c1` yielded an inhibition of 20.9%. `COc1ccc(C2CC(C)(c3ccc(OC)cc3OC)Nc3ccccc3N2)c(OC)c1` (centres undefined) gave an inhibition of 37.6%. For `O=C(COc1c(F)c(F)c(C(F)(F)F)c(F)c1F)Nc1ccc(N2CCOCC2)c(Cl)c1`, the inhibition was 28.9%. `O=C(NC1=NCCS1)c1cc(-c2cccc(Br)c2)nc2ccccc12` showed an inhibition of 69.9%. `CCCc1c(C)[nH]c2ccc(NC(C)=O)cc2c1=O` showed an inhibition of -17.1%. With `COc1cccc(NC(=O)C(=S)NC2CCCCC2)c1` the inhibition was 38.4%. With `N=c1n(Cc2ccccc2)c2ccccc2n1CC(O)COc1ccc(Cl)cc1Cl` (centres undefined) the inhibition was 93.6%. In the case of `Cc1ccc(C)c(NC(=S)NCc2ccc3[nH]c4c(c3c2)CCCC4)c1`, the inhibition is reported as 52.1%. Compound `COc1ccc(C2C(C#N)=C(SC)NC3=C2C(=O)CC(C)(C)C3)cc1` (centres undefined) has an inhibition of 15.7%. In the case of `O=C(NCCCc1ccccc1)Nc1cccc(Cl)c1`, the inhibition is reported as 55.6%. With `Cc1ccc(S(=O)(=O)CNC(=S)c2cccc(Cl)c2)cc1` the inhibition was 68%. Work on `CNc1ccccc1C(C)(C)c1cc(-c2cccc(Br)c2)no1` yielded an inhibition of 29.2%. `Cc1ccc(C2CC(c3cccs3)=NN2S(=O)(=O)c2ccc(C)cc2)cc1` (centres undefined) gave an inhibition of 45%. With `COc1ccc(OC)c(NC(=S)NCCSc2ccc(C)cc2)c1` the inhibition was 49.5%. In the case of `Cc1cccc(NC(=S)NC2CCCCC2)n1`, the inhibition is reported as 49.6%. Compound `O=S(=O)(NCCNc1ncc(C(F)(F)F)cc1Cl)C(F)(F)F` has an inhibition of 76%. In the case of `O=C1NN=C(c2ccc(Br)cc2)CC1c1ccc(Cl)cc1` (centres undefined), the inhibition is reported as 20.8%. Compound `Cc1nc(N)sc1N=Nc1ccc(Br)cc1` has an inhibition of 57.5%. For `C/C(=N\Nc1ccccn1)c1ccc(C(C)C)cc1`, the inhibition was 41.2%. With `CCCCn1nnc(NC(=S)NC(=O)c2ccc(-c3cccc(Cl)c3Cl)o2)n1` the inhibition was 47.3%. Compound `Cc1ccc(CSc2ncnc3c2cnn3Cc2ccccc2)cc1` has an inhibition of 48.4%. `O=S(=O)(c1ccc(Br)s1)N1CCN(Cc2ccc3c(c2)OCO3)CC1` gave an inhibition of 31.1%. For `COc1ccc(NC(=O)N2c3ccccc3CC2C)cc1OC` (centres undefined), the inhibition was -3.03%. Work on `Cc1cccc(N=Nc2c(C)nn(-c3ccccc3)c2N)c1C` yielded an inhibition of 71.6%.
